The values below come from PubChem BioAssay (NCI).

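Following 48 hours of exposure in 96-well plates, responses at five concentrations were used to interpolate endpoints linearly. GI50 = concentration required for 50% inhibition of growth. TGI is the concentration that stops growth completely.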

This test concerns NCI-H322M lung. The test is described as follows: NCI anticancer screen, dose series, 48 h.
For the compound `O=C1CCC(N2Cc3cc(CC(=O)Nc4ccc(N5CCCCC5)cc4)ccc3C2=O)C(=O)N1` (centres undefined), the GI50 is below 0.0122 µM and the TGI is above 100 µM.
On to `N#Cc1c(NC(=O)c2ccc(C(F)(F)F)cc2)sc2c1CCC(=O)C2`, for which the GI50 is 3.18 µM and the TGI is 35.2 µM.
For `Cn1cc(-c2cc(N)n3nc(-c4c[nH]c5ccccc45)cc3n2)c2ccccc21`, the GI50 was 2.81 µM and the TGI worked out at 10.5 µM.
For `COc1ccc(Nc2nc(N)n(Cc3cccc(Br)c3)n2)cc1`, in that order: 34.9 µM and above 100 µM.
As to `COc1ccc(C(SCCNCc2cc(N(C)C)ccn2)(c2ccccc2)c2ccccc2)cc1`, the GI50 was 0.753 µM and the TGI turned out to be 15.6 µM.
`Clc1ccc(-c2ccc(OCCCN3CCN(c4ccncc4)CC3)cc2)cc1`: the GI50 was 16.6 µM and the TGI was 34.5 µM.
For `Cn1cc(-c2cc3nc(-c4c[nH]c5ccccc45)cc(N)n3n2)c2cc(Cl)ccc21`, in that order: 2.21 µM and 6.11 µM.
